# ± gives the standard deviation. The full ranking holds about 3,700 sequences; the median of “pre-steady-state target cleavage rate” is about 0.02, and the highest 2% start at about 0.23. Only a part is listed here, and it is no random draw.
# Tested on: MILI (PIWIL2) piRISC loaded with Kctd7 piRNA (26 nt)
# Assay: pre-steady-state target cleavage rate (min^-1); MIWI and MILI are mouse PIWI proteins and EfPiwi is from a freshwater sponge; tags in brackets are library labels; higher = faster piRNA-guided slicing of the target
# Details: guide: Kctd7 piRNA 5'p-UGUUAAUCUCUCAGAGAAGGUGACAG; auxiliary factor: 500 nM mouse GTSF1
# Experimental: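 Cleave-'n-Seq: a library of target RNAs (target site embedded in constant flanks, ACAGCATTCCGCGTTAGTGATATCCG... 5' flank; DNA-blocked outside the site) at 0.1 nM was incubated with 1 nM active mouse MILI or MIWI piRISC (synthetic 5'-monophosphorylated piRNA guide) with or without 500 nM mouse GTSF1 at 33 °C for 1 min to 16 h. Uncleaved targets were sequenced and normalised to non-target controls, and the pooled three trials were fitted to a burst-and-steady-state model to give the pre-steady-state cleavage rate (min^-1; k3 is constrained to at most 1e-4). Sequence is the target site only; target names encode pairing extent (gX:gY) and contiguous / 1-mismatch / 2-mismatch / bulge geometry. Fits with R² ≤ 0 are excluded.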
row,Sequence,pre-steady-state target cleavage rate
1,UAGUGAGUCAGCUUCUCUCAGAGAUUAACA,0.045 ± 0.0056
2,UAGUGACUCACCUUCUCUGACAGAUAAACA,0.00501 ± 0.0033
3,UAGUGUGUCACCUUCUCUCAGAGAUAAACA,0.046 ± 0.016
4,UAGUGAGCACCUUCUCUGAGAGAUUAACA,0.232 ± 0.027
5,UAGUGACACACCUACUGUGAGAGAUUAACA,0.0809 ± 0.01
6,UAGUCUGUCACCUUCUCUGAAGAUUAACA,0.00436 ± 0.0033
7,UAGUGACAGUGCUUCUCUGAGAGAUGUAACA,0.0343 ± 0.0079
8,UAGUCUGUCUCCUUCUCUGUGAGAUUAACA,0.0385 ± 0.0038
9,UAGUGAGUGACCUUCUCUGUGAGAUUAACA,0.0432 ± 0.0052
10,UAGUCACUCACCUUCUCUGAGAGAUUAACA,0.207 ± 0.0095
11,UAGUGACAGUGGUGUCUCUGAGAGAUUAACA,0.00449 ± 0.0027
12,UAGUCUGUCAUCUUCUCUGAGAGAUUAACA,0.221 ± 0.0092
13,UAGUGACACACCUUCUCUGAGAGAUUAAUCA,0.0968 ± 0.021
14,UAGUGAGUCACCUUCUCUAGAGAGAUUAACA,0.00582 ± 0.0045
15,UAGUGUGACACCUUCUCUGAGAGAAUAACA,0.101 ± 0.031
16,UAGUGUGUCACCUUCUCUGAGAGAUAUUCA,0.143 ± 0.047
17,UAGUGUGUCACCUGCUCUGAGAGAUUAACA,0.157 ± 0.012
18,UAGUGACAGUGCUGCUCUGAGAGAUUAACA,0.0229 ± 0.0032
19,UAGUGUGUCACCUUGAGUGAGAGAUUAACA,0.0722 ± 0.01
20,UAGUGAGUCACCUUGUCUGAGAGUUUAACA,0.0431 ± 0.013
21,UAGUGACUCACCUUCUCUGAGAGAUUGACA,0.154 ± 0.03
22,UAGUGACAGACCUACUCUGAGAGAUAAACA,0.0111 ± 0.0048
23,UAGUGAGACACCUUCUCUGAGAGAUUUACA,0.114 ± 0.024
24,UAGUGACACACCUUCUCUGAGAGAGUAACA,0.148 ± 0.038

row,Sequence,pre-steady-state target cleavage rate
1,UAGUGACUCACCUUGUCUGAGAGAUAAACA,0.0774 ± 0.023
2,UAGUGACACACCUUCUUUGAGAGAUUAACA,0.199 ± 0.016
3,UAGUGUGUCACCAUCUCUGAGAGAUAAACA,0.0929 ± 0.022
4,UAGUGAGUCACCUACUCUGAGAGUUUAACA,0.0905 ± 0.017
5,UAGUGUGACACGUUCUCUGAGAGAUUAACA,0.175 ± 0.014
6,UAGUGACUCACCUUCUCUGGGAGAUUAACA,0.139 ± 0.0091
7,UAGUGUGUCACCUUCUCACUGAGAUUAACA,0.015 ± 0.0033
8,UAGUGACUCACCUGUCUCUGAGAGAUUAACA,0.092 ± 0.0099
9,UAGUGACACACCUUCUGAGAGAGAUUAACA,0.0625 ± 0.012
10,UAGUCUCUCACGUUCUCUGAGAGAUUAACA,0.0167 ± 0.0062
11,UAGUCUCUCACCUUCUCAGAGAGAUUAACA,0.0512 ± 0.0067
12,UAGUGACUCACCUUCUCUGAGUGAUUAAGA,< 0.0001
13,UAGUGUGUCUGCUUCUCUGAGAGAUUAACA,0.157 ± 0.0089
14,UAGUGACUCAGCUUCUGUGAGAGAUUAACA,0.0894 ± 0.016
15,UAGUGACAGUGGAAGUCUGAGAGAUUAACA,0.00299 ± 0.0013
16,UAGUCUGUCACCAUCUCUGAGAGAUUAUCA,0.0805 ± 0.0099
17,UAGUGACUCACCAUCUCUGAGAGAUAAACA,0.0294 ± 0.0073
18,UAGUGACACACCUUGUCUGAGAGAUUAACA,0.104 ± 0.019
19,UAGUGACAGUGGAAGAGUGAGACAAUAACA,< 0.0001
20,UAGUCUGUCACCUUCUCAGAGAGUUUAACA,0.142 ± 0.036
21,UAGUGACAGUCCUUCUCUGAGUCUUUAACA,< 0.0001
22,UAGUGUGUCACCUUCACUGAGAGAUUAACA,0.141 ± 0.013
23,UAGUGUGUCACCUUCUCAUGAGAGAUUAACA,0.0313 ± 0.013
24,UAGUCUGUCACGUUCUCUGAGAGAUUAAGA,0.0713 ± 0.01

row,Sequence,pre-steady-state target cleavage rate
1,UAGUGAGUCACCUUCUCUGAGAGUAAAACA,0.14 ± 0.045
2,UAGUGUGUCACCUUCUCUAGAGAUUAACA,0.0216 ± 0.0081
3,UAGUGAGUCACCUUCUCUGAGAGAAUAACA,0.163 ± 0.04
4,UAGUGACUCACCUUCUCUCAGAGAUUUACA,0.0292 ± 0.0097
5,UAGUGAGUCACCUUCUCAGAGUGAUUAACA,0.00474 ± 0.0042
6,UAGUGACACACCUUCCUCUGAGAGAUUAACA,0.0599 ± 0.011
7,UAGUGACAGUCCUUCUCUGAGAGAUCAACA,0.0166 ± 0.0039
8,UAGUGACUCACCUUCACUGAGAGAUUAACA,0.0772 ± 0.0082
9,UAGUGUGAGUCCUUCUCUGAGAGAUUAAGA,0.00978 ± 0.0042
10,UAGUGACAGAGCUUCUCAGAGAGAUUAACA,0.0123 ± 0.0046
11,UAGUGACACACCUUCUCUGAGCGAUUAACA,0.0067 ± 0.0041
12,UAGUGUGUCACCUUCUCUGAGAGAUUAUACA,0.157 ± 0.035
13,UAGUGUCUCACCUUCACUGAGAGAUUAACA,0.0938 ± 0.0093
14,UAGUCUGUCAGGUUCUCUGAGAGAUUAACA,0.101 ± 0.0066
15,UAGUGACAGUGGAAGUCUGAGACAAUAACA,< 0.0001
16,UAGUGACAGACCAUCUCUCAGAGAUUAACA,0.0122 ± 0.0049
17,UAGUGACAGUCCUUCUCUGAGAGAGUUAACA,0.0656 ± 0.017
18,UAGUCUGUCACCUUCUGUCAGAGAUUAACA,0.0393 ± 0.0061
19,UAGUGACAGACCUUCUCUGAUAGAUUAACA,0.0352 ± 0.011
20,UAGUGACAGUGCUUCUCUGAGAGUUUAACA,0.00499 ± 0.0023
21,UAGUGACACACCUUCACUGAGUGAUUAACA,0.00425 ± 0.0037
22,UAGUCUCUCACCUACUCUGAGAGAUUAACA,0.0442 ± 0.01
23,UAGUGUGUCACCUUCUCUGAGAGAAUAACA,0.167 ± 0.039
24,UAGUGUGUCACUCUUCUCUGAGAGAUUAACA,0.0903 ± 0.01

# Reference: the supplement of paper PMC10338343
